Results on 1 molecule are retold here after patent publication US20260184782A1 (TWIST BIOSCIENCE, published 2026).

Assay [1] addresses T1, TIGIT (UniProt Q495A1 22-141, limits assumed).
T1 construct: construct not described; also called T cell immunoreceptor with Ig and ITIM domains
T1 sequence (looked up): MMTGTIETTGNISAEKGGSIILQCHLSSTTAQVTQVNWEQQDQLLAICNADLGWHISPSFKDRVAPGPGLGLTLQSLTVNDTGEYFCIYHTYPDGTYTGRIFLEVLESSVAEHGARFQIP
Briefly: ELISA. (In general: In an ELISA, binding on a coated surface is turned into a signal by an enzyme label.)

Assay [2] has as its target T1, TIGIT. As to the kind of experiment: TIGIT:CD155 blockade ELISA, biotin-CD155 as competitor.
In assay [3] the target is T1, TIGIT. Briefly: Carterra SPR, VHH-Fc.

B1: TIGIT-30-43 VHH-Fc (Fc fusion)
chain: EVQLVESGGGLVQAGGSLRLSCAASGFTFSTSWMGWFRQAPGKERELVAARNSGGNTNYADSVKGRFTISADNAKNTVYLQMNSLKPEDTAVYYCAADVWYGSTWRNWGQGTQVTVSSGGGGS[in this place human IgG1 Fc with C220S (EU numbers)]
As for B1, the ELISA with TIGIT [1] stood at 13.5. Further, the IC50 (commonly the concentration needed to halve the response being measured) with TIGIT [2] was 2.3 nM. Besides, in the assay with TIGIT [3], the Kd – broadly, the equilibrium constant for the complex coming apart – was 44 nM; the koff (usually the first-order rate constant of dissociation) came to 0.013 s⁻¹; the kon (as a rule, a measure of how fast the partners come together) amounted to 290000 M⁻¹ s⁻¹.
